Results: the supplement of paper PMC7826260
The other results are listed elsewhere or left out. One pool of 16,384 single-stranded DNAs met each Rep nickase domain in vitro (1 h at 37 °C, 3 µM enzyme); the outer parts of the 90-letter strands are left off. Uncut reads are compared with the no-enzyme pool on a log2 scale; uncut sequences lie near 0, cut ones below; no hit call is given. Because reads are shares of a total, they shift together; uncut strands gain when others are lost, and binding without cutting may add a little.

What was measured:
Experiment in all cases: uncleaved DNA left, log2 of reads against the no-enzyme library (log2 ratio); higher = less cleavage (more negative = more Rep cleavage of the k-mer); sequences stand for … in CTCGTCCG…ACCGGAGA
[1] = tested on: T1, Rep nickase domain of Muscovy duck circovirus
T1 sequence (protein, residues 1-111, tag omitted): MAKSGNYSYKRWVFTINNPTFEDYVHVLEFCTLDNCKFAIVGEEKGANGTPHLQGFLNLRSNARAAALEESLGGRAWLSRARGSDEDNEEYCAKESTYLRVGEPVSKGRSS
Description: (§1)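 A pool of 90-nt single-stranded DNAs with seven random bases just before the constant AC of the nick site (name = the seven bases) was cut by 3 µM recombinant His6-SUMO-tagged Rep nickase domain (300 nM DNA, 50 mM HEPES pH 8.0, 50 mM NaCl, 1 mM MnCl2, 1 h, 37 °C, three replicates). Uncut DNA was amplified and sequenced.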

[2] = tested on: T2, Rep nickase domain of banana bunchy top virus
T2 sequence (protein, residues 1-94, tag omitted): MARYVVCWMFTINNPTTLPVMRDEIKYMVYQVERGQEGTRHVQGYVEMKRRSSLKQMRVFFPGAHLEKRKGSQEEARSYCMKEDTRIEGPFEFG
Description: as §1

[3] = tested on: T3, Rep nickase domain of cabbage leaf curl virus
T3 sequence (protein, residues 1-116, tag omitted): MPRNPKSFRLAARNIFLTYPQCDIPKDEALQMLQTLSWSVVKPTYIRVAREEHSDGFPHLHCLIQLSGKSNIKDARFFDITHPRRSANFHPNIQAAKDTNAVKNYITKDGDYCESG
Description: as §1

[4] = tested on: T4, Rep nickase domain of chickpea chlorotic dwarf virus
T4 sequence (protein, residues 1-124, tag omitted): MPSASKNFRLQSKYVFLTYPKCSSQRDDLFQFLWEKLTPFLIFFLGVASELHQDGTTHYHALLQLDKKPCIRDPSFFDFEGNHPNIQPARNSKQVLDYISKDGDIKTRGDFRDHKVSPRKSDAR
Description: as §1

[5] = tested on: T5, Rep nickase domain of faba bean necrotic yellows virus
T5 sequence (protein, residues 1-98, tag omitted): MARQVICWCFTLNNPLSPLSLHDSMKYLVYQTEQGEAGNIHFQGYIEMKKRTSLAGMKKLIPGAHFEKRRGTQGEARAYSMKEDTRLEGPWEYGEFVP
Description: as §1

[6] = tested on: T6, Rep nickase domain of maize striate mosaic virus
T6 sequence (protein, residues 1-117, tag omitted): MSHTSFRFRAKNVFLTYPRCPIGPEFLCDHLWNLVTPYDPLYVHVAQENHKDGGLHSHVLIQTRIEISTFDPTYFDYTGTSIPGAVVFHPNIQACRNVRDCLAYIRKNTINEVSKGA
Description: as §1

[7] = tested on: T7, Rep nickase domain of porcine circovirus 2
T7 sequence (protein, residues 2-116, tag omitted): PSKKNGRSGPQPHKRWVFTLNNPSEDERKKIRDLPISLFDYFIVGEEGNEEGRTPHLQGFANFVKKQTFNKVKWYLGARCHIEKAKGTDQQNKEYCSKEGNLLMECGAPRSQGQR
Description: as §1

[8] = tested on: T8, Rep nickase domain of tomato golden mosaic virus
T8 sequence (protein, residues 1-124, tag omitted): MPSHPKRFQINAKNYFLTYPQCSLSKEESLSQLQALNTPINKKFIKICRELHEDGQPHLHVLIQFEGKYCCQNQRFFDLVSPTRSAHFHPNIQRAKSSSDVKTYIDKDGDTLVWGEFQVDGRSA
Description: as §1

[9] = tested on: T9, Rep nickase domain of tomato yellow leaf curl virus
T9 sequence (protein, residues 1-136, tag omitted): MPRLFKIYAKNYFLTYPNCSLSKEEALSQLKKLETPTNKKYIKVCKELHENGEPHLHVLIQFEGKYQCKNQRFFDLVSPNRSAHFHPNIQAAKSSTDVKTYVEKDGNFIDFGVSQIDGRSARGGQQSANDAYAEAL
Description: as §1

[10] = tested on: T10, Rep nickase domain of wheat dwarf virus
T10 sequence (protein, residues 1-137, tag omitted): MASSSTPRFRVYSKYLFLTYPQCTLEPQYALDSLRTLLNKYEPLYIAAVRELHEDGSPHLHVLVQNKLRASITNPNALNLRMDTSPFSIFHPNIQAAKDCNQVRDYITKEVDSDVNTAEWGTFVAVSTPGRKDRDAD
Description: as §1

Sequence | uncleaved DNA left (log2) [1] | uncleaved DNA left (log2) [2] | uncleaved DNA left (log2) [3] | uncleaved DNA left (log2) [4] | uncleaved DNA left (log2) [5] | uncleaved DNA left (log2) [6] | uncleaved DNA left (log2) [7] | uncleaved DNA left (log2) [8] | uncleaved DNA left (log2) [9] | uncleaved DNA left (log2) [10]
ATCGGTC | 0.128 | 0.0371 | 0.0605 | 0.141 | 0.0535 | -0.378 | 0.153 | -0.0462 | 0.0491 | 0.0317
CGCGTGG | 0.126 | 0.057 | 0.027 | 0.519 | 0.0347 | 0.444 | 0.112 | 0.000313 | 0.0481 | 0.0452
TGTAGGC | 0.132 | 0.0489 | 0.34 | 0.615 | 0.02 | 0.183 | 0.176 | 0.07 | 0.0857 | 0.11
TTATCTT | -3.11 | -0.126 | -2.92 | -2.59 | -0.0943 | -0.998 | -3.2 | -1.81 | 0.151 | -1.96
GTTTCCC | -0.151 | -0.0968 | 0.286 | 0.715 | -0.213 | 1.58 | -1.46 | -0.0998 | 0.00905 | -0.018
GCAGGGC | 0.0294 | 0.0198 | 0.151 | 0.546 | 0.0418 | -0.0967 | 0.166 | 0.106 | 0.0359 | 0.0173
CCAAACT | 0.0624 | 0.0948 | -0.164 | -2.54 | 0.0358 | -0.514 | -0.016 | -0.132 | 0.166 | 0.0911
CTCCTAT | -0.0892 | -0.159 | -0.117 | -1.03 | -0.163 | -0.567 | -0.483 | -0.16 | -0.108 | -0.131
ATTCGAC | 0.0126 | -0.113 | -0.15 | -0.147 | 0.00378 | -0.833 | -0.0229 | -0.0989 | -0.176 | -0.153
GCAACAA | -0.0534 | 0.125 | 0.162 | 0.418 | 0.0643 | 0.199 | 0.0637 | 0.0487 | 0.0951 | 0.129
AATCAGA | 0.0866 | 0.138 | -0.177 | -0.374 | 0.108 | -0.953 | 0.15 | 0.197 | 0.143 | 0.0451
TCTCACT | -0.0276 | -0.0847 | 0.0883 | -2.25 | -0.0825 | -0.243 | -0.651 | 0.025 | -0.0581 | -0.221
TCCATGG | 0.0626 | -0.0104 | 0.123 | 0.465 | -0.109 | -0.143 | 0.108 | 0.0226 | -0.124 | -0.0655
TCTGAAC | 0.138 | 0.0121 | 0.000301 | 0.376 | 0.00571 | 0.699 | 0.192 | 0.0894 | 0.00553 | 0.0611
TTGTTGT | -0.304 | -0.182 | -0.376 | -0.875 | -0.0455 | -1.18 | -1.49 | -0.273 | 0.0138 | -0.228
GTGACTA | 0.101 | 0.27 | 0.522 | 1.44 | 0.0276 | 2.08 | 0.266 | 0.0814 | 0.188 | 0.315
TCTTAGC | 0.158 | 0.00866 | -0.279 | -0.448 | -0.00808 | -1.22 | 0.0164 | -0.0699 | 0.00839 | -0.0611
GATCGCC | 0.0435 | -0.0391 | 0.0866 | 0.16 | -0.0621 | -0.0323 | 0.0176 | -0.19 | 0.0053 | 0.00469
TGTTTTC | -0.0222 | -0.128 | 0.372 | 0.601 | -0.0637 | 1.03 | -0.00138 | -0.0534 | 0.0443 | -0.00626
AGCCTGC | -0.0718 | -0.035 | -0.108 | 0.433 | -0.111 | 0.791 | 0.0134 | -0.178 | -0.0954 | -0.0137
ATATAGC | -0.0365 | 0.0297 | -0.515 | -0.556 | -0.00217 | -1.14 | 0.172 | -0.0654 | 0.14 | 0.103
CTTACGT | 0.113 | 0.108 | 0.165 | -0.841 | -0.0217 | -0.302 | -0.0833 | -0.0145 | 0.0272 | 0.00548
ACAGTCA | -0.0572 | 0.00188 | -0.263 | -1.52 | -0.031 | -0.905 | -0.0423 | -0.0662 | -0.132 | -0.126
CCACAAG | -0.0381 | -0.0106 | -0.942 | -0.405 | 0.0326 | -0.922 | 0.189 | -0.0344 | 0.0585 | 0.00721
TTCCAAA | 0.0586 | -0.0604 | 0.254 | 0.28 | -0.0212 | -0.0596 | 0.071 | -0.16 | 0.0808 | 0.102
ATAGACG | 0.0555 | 0.109 | -0.661 | -0.533 | 0.0296 | -1.19 | 0.192 | 0.0221 | 0.0861 | -0.0595
GGACTCA | 0.106 | 0.0887 | 0.786 | 1.73 | 0.0132 | 2.2 | 0.098 | -0.0856 | 0.112 | 0.122
GCATATT | -2.79 | -0.682 | -1.35 | -2.3 | -0.105 | -0.253 | -2.91 | -0.3 | 0.022 | -0.555
AGGCGAA | -0.0555 | -0.122 | -0.122 | -0.0366 | 0.042 | -0.54 | 0.0287 | -0.0546 | -0.0696 | 0.0476
CGGTTAG | 0.0716 | 0.0339 | -0.536 | -0.189 | 0.105 | -0.763 | 0.299 | -0.05 | 0.112 | -0.0517
